# Data as given in PubChem BioAssay AID662 (National Center for Advancing Translational Sciences (NCATS), 2007).
# The whole screen tested about 71,000 compounds, of which about 1,800 (2.5%) were called active. This list was built around the results that the source calls inconclusive (neither active nor inactive); the mix of calls is not that of the screen. Calls come from the whole dose curve; as a rule, active = well fitted activation curve with a large enough effect in the signal ratio, with a control signal flat (not every such curve was filed as active); inconclusive = small, poorly fitted or top-dose-only effect, or effect the other way, or a change in a side signal; inactive = flat fitted curve, though single readings scatter; the % refers to the signal ratio. Where the call is inconclusive, the potency comes from a doubtful curve fit.
# Assay: Cell signaling CRE-BLA (Fsk stim); for activity change, negative = inhibition: % of control where 0% means no effect
# Conditions: CHO CRE-bla reporter (cAMP response element driving beta-lactamase), forskolin EC10, beta-lactamase ratio; activity change, negative = inhibition: at 38.2 µM (top of the series) unless noted
# Procedure, shortened: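 Cells were plated overnight at 37 °C, exposed to compound titrations plus EC10 NKH 477 for 3 h, then given CCF4 dye for 2 h at room temperature. Blue/green (460/530 nm) ratio was converted to %Activity and AC50 values calculated.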
# Potency is the fitted concentration of half-maximal effect; tags give direction and shape of the fitted curve.
Compound,Potency,"activity change, negative = inhibition"
CC(=NCc1ccco1)c1c(O)n(Cc2ccccc2)c(=O)[nH]c1=O,"inconclusive: 10 µM [rising, partial curve]",
COc1ccc(CCNCc2ccccn2)cc1OC,,inconclusive: 10.7%
CCOC(=O)c1c(C)n(CCOC)c2ccc(O)cc12,"inconclusive: 10 µM [rising, single point]",
COc1ccc(CCn2c(O)c(C=NCc3ccc4c(c3)OCO4)c(=O)[nH]c2=O)cc1OC,"inconclusive: 10 µM [rising, partial curve]",
COc1ccc(C[C@H]2c3cc(OC)c(OC)cc3CCN2C)cc1OC,,inconclusive: 1.94% [at 17.1 µM]
O=C(Cn1cc(C(=O)c2ccccc2F)c2ccccc21)NCc1ccco1,,inconclusive: 7.58%
C=CCn1c(O)c(C(C)=NCc2cc(OC)cc(OC)c2)c(=O)[nH]c1=O,"inconclusive: 7.94 µM [rising, partial curve]",
O=S(=O)(Nc1nccs1)c1ccc([As](=O)(O)O)cc1,,inactive: -3.13% [at 7.6 µM]
CN(C)[C@@H]1C(=O)C(C(N)=O)=C(O)[C@]2(O)C(=O)C3=C(O)c4c(O)cccc4[C@](C)(O)[C@H]3C[C@@H]12,,inactive: 0.721% [at 7.6 µM]
Nc1ccc(N2CCN(Cc3ccccc3Cl)CC2)c(Cl)c1,,inactive: 14.3%
NCCc1c[nH]c2ccc(OC(=O)C(=O)O)cc12,,inconclusive: -14.1% [at 7.6 µM]
Cc1noc(C)c1C(=O)N1CCC2(CC1)OCCO2,,inactive: 5.68%
O=c1[nH]c(=O)n(Cc2ccccc2)c(O)c1C=NCCCn1ccnc1,,inconclusive: -3.7%
Nc1ccnn1C1CCNCC1,,inactive: 0.272%
O=c1cccc2n1CC1CC2CN(c2ncnc3c2cnn3-c2ccccc2)C1 (stereo unspecified),"inconclusive: 15.8 µM [rising, single point]",
CCCCn1c(C)c(C(=O)OCC)c2c(CN3CCOCC3)c(O)ccc21,,inactive: 7.67%
Nc1c(C(=O)OCC2CCCO2)c2nc3ccccc3nc2n1Cc1cccs1 (stereo unspecified),active: 10 µM,
C[N+]1(C)[C@@H]2CC[C@H]1CC(OC(=O)c1c[nH]c3ccccc13)C2 (stereo partly specified),,inconclusive: -24.7%
Cn1c(=O)cc(OCC(=O)N2CCN(Cc3ccc4c(c3)OCO4)CC2)c2ccccc21,"inconclusive: 7.94 µM [rising, partial curve]",

Compound,Potency,"activity change, negative = inhibition"
O=C(CCCN1CCC2(CC1)C(=O)N(CCc1ccc(N=C=S)cc1)CN2c1ccccc1)c1ccc(F)cc1,"inconclusive: 5.01 µM [rising, full curve]",
O=C(Cn1c2c(c(-c3ccccc3Cl)cc1=O)CCC2)N1CCC2(CC1)OCCO2,,inactive: -14.5%
CC1=C(O)C(=O)[C@H]2O[C@@H]2C1=O,"inconclusive: 25.1 µM [rising, partial curve]",
CCCCn1c(O)c(C(CC)=NCCCN(C)C)c(=O)[nH]c1=O,,inactive: 4.35%
CP(=O)(O)CCCN,,inactive
Cc1cc(C)n2nc(SC(C)C(=O)N3CCC4(CC3)OCCO4)nc2n1 (stereo unspecified),,inconclusive: 36%
FC(F)(F)c1ccc(Cl)cc1,,inactive: -11%
COc1ccc2[nH]cc(C3=CCNCC3)c2c1,,inconclusive: -28%
C(=C/c1ccccc1)/CN1CCN(CCOC(c2ccccc2)c2ccccc2)CC1,"inconclusive: 15.8 µM [falling, partial curve, poor fit]",
Fc1ccc2c(c1)nnn2C1CCN(Cc2nnnn2CCc2ccccc2)CC1,,inconclusive: 16.1%
C=CCn1c(O)c(C(CC)=Nc2cc(OC)ccc2OC)c(=O)[nH]c1=O,"inconclusive: 15.8 µM [rising, single point]",
COC(C)(C)C,,inactive: -8.21%
CCNC(=O)[C@@H]1O[C@@H](n2cnc3c(N)ncnc32)[C@H](O)[C@H]1O,,inconclusive: -16.5%
O=C(O)[C@H](Cc1cnc[nH]1)N1C(=O)c2ccccc2C1=O,,inactive: 7.95% [at 7.6 µM]
COc1ccc(N)cc1,,inactive
O=C(O)[C@H]1[C@H](C(=O)O)[C@H]2CC[C@@H]1O2,"inconclusive: 25.1 µM [rising, single point]",
Clc1cccc(SC2CCNCC2)n1,,inconclusive: -21.9%
Nc1ccccc1C(=O)OCCOc1ccccc1,,inactive: -9.27%
O=C(CSc1ccccc1)N1CCC2(CC1)OCCO2,active: 12.6 µM,

Compound,Potency,"activity change, negative = inhibition"
O=[N+]([O-])c1ccccc1O,,inactive: -5.96%
O=c1ccc2[nH]cc(C3=CCNCC3)c2[nH]1,"inconclusive: 0.00158 µM [falling, full curve, poor fit]",
Cc1cc(Cl)ccc1OC(C)C(=O)O (stereo unspecified),,inconclusive: -13.4%
c1ccc2c(c1)CCNC2,,inactive: -10%
O=c1[nH]c2ccccc2n1C1CCN(CCCC(c2ccc(F)cc2)c2ccc(F)cc2)CC1,,inconclusive: -25.4%
CC(=O)[O][Hg][c]1ccccc1,"inconclusive: 3.98 µM [falling, full curve]",
CC(C)(OO)c1ccccc1,,inactive: -13.8%
Clc1ccc(C(c2ccccc2Cl)C(Cl)(Cl)Cl)cc1 (stereo unspecified),,inconclusive: -6.01%
Cc1ccccc1NC1=NCC(C)S1 (stereo unspecified),,inconclusive: 11.9%
CN(C(=O)c1ccco1)C1(c2ccccc2Cl)CCCCC1=O (stereo unspecified),,inactive: -9.83%
CCn1c(C(=O)N2CCC(C(=O)N3CCC4(CC3)OCCO4)CC2)cc2sccc21,,inconclusive: -8.95%
CCCCOc1ccc(CC2C(=O)N(C)C(=O)N(C)C2=O)cc1,,inconclusive: 21.8% [at 7.6 µM]
CC1(C)N=C(N)N=C(N)N1c1cccc(C(=O)Nc2ccc(S(=O)(=O)F)cc2)c1,,inconclusive: 23.3% [at 7.6 µM]
O=C(CN1C(=O)CN=C(c2ccccc2Cl)c2cc(Cl)ccc21)NCc1ccco1,"inconclusive: 15.8 µM [falling, partial curve]",
C#C[C@@]1(O)CC[C@@H]2[C@@H]3CCC4=CC(=O)CC[C@@]4(C)[C@H]3CC[C@]21C,,inactive: -2.17% [at 17.1 µM]
CCCCCCCCn1sccc1=O,,inconclusive: -29.2%
CCCCCCCCCCCC[N+](C)(C)CCOc1ccccc1,,inconclusive: -22.9%
CC(C)(c1ccc(OC[C@@H]2CO2)cc1)c1ccc(OC[C@H]2CO2)cc1,,inconclusive: -27.2%
